Results from PubChem BioAssay (NCATS).
This list was built around the results that the source calls inconclusive (neither active nor inactive); the mix of calls is not that of the screen. Potencies beside an inconclusive call are fits to weak or partial responses and may not hold up. Activity calls are given as the source filed them. Calls come from the whole dose curve; as a rule, active = well fitted cell-killing curve with a large enough effect; inconclusive = small, poorly fitted or top-dose-only effect, or effect the other way; inactive = flat fitted curve, though single readings scatter.

system: Tov112D; assay: Primary qHTS to identify gynecologic anti-cancer compounds using libraries of approved drugs and bioactive compounds (AID 1345084); details: Gynecologic cancer cell panel viability, ATPlite luminescence, 48 h; activity change, negative = cytotoxicity: at 57.5 µM (top of the series); note: nearly all actives have a fitted effect of over 55% in size
Outline: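 Cells, 1,000 per well, were allowed to settle for 16 h at 37 C before compound addition. Five concentrations were tested for 48 h, and viability was read by ATPlite luminescence after 15 min at room temperature.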
% is set by controls: 0 for no effect and ±100 for the full control effect; potency is the fitted concentration of half-maximal effect; tags give direction and shape of the fitted curve.

| SMILES | Potency | activity change, negative = cytotoxicity |
| --- | --- | --- |
| CC(=O)NC1=NN(C(C)=O)C(C)(c2ccccc2)S1 (stereo not drawn) | active: 3.16 µM | – |
| CNC(=O)c1cccc(-c2ccc3c(N4CCOC[C@@H]4C)nc(N4CCOC[C@@H]4C)nc3n2)c1 | inconclusive: 0.447 µM [cytotoxic, full curve] | – |
| Nc1ncnc2c1nc(N)n2[C@@H]1O[C@H](CO)[C@@H](O)[C@H]1O | active: 3.55 µM | – |
| C[C@@H](O[C@H]1OCCN(Cc2n[nH]c(=O)[nH]2)[C@H]1c1ccc(F)cc1)c1cc(C(F)(F)F)cc(C(F)(F)F)c1 | inconclusive: 25.1 µM [cytotoxic, partial curve, poor fit] | – |
| C=C1C(=O)O[C@H]2/C=C(/C)[C@@H](OC(C)=O)C/C=C(\C)C[C@@H](OC(=O)/C(=C/C)COC(=O)/C(=C/C)CO)[C@@H]12 | inconclusive: 17.8 µM [cytotoxic, partial curve, poor fit] | – |
| CNc1cccc(CCOc2ccc3c(c2)CN(CC(F)(F)F)C(=O)[C@H](CC(=O)O)C3)n1 | – | inactive: -15.3% |
| COc1cc2nc(N3CCN(C)CC3)nc(NC3CCN(Cc4ccccc4)CC3)c2cc1OC | inconclusive: 35.5 µM [cytotoxic, single point] | – |
| CC(=O)O[C@H]1CC(C)(C)CC2[C@]13CO[C@@]21CCC2[C@@]4(C)CC[C@H](O[C@@H]5OC[C@H](O[C@@H]6O[C@H](CO)[C@@H](O)[C@H](O)[C@H]6O[C@@H]6OC[C@@H](O[C@@H]7O[C@H](CO)[C@@H](O)[C@H](O)[C@H]7O)[C@H](O)[C@H]6O)[C@H](O)[C@H]5O[C@@H]5O[C@H](CO)[C@@H](O)[C@H](O)[C@H]5O)[C@@](C)(CO)C4CC[C@@]2(C)[C@]1(C)C[C@H]3O (stereo partly drawn) | inconclusive: 6.31 µM [cytotoxic, single point] | – |
